A lower IC50 marks a more sensitive line; fits outside the tested doses are given as limits. AUC is the area under the same curve over the 256-fold range up to the top dose, as a fraction: 1 means no effect, lower means more sensitive.
Compound: FC(F)c1nc2ccccc2n1-c1nc(N2CCOCC2)nc(N2CCOCC2)n1 [ZSTK474]
Test: Viability of human cancer cell lines after 72 h of drug (GDSC screen)
Description: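 Human cancer cell lines in 384-well plates, medium with 10% serum, drug for 72 h over a 256-fold dose range (nine 2-fold or five 4-fold steps up to the top dose). Adherent lines were fixed and stained with the nucleic acid dye Syto60, suspension lines read with resazurin; signal relative to control wells, capped at 0 and 100%. One two-parameter sigmoid per drug and line, fitted in a mixed model over all curves with the slope shared within a line.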

NCI-H1155 (large cell lung carcinoma, suspension, top dose 5.12 µM)
AUC: 0.938 | IC50: > 5120 nM

NCI-H1299 (large cell lung carcinoma, adherent, top dose 5.12 µM)
AUC: 0.869 | IC50: > 5120 nM

NCI-H1304 (small cell lung carcinoma, suspension, top dose 5.12 µM)
AUC: 0.661 | IC50: 934 nM

NCI-H1355 (lung adenocarcinoma, adherent, top dose 5.12 µM)
AUC: 0.901 | IC50: > 5120 nM

NCI-H1395 (lung adenocarcinoma, adherent, top dose 5.12 µM)
AUC: 0.779 | IC50: 2830 nM

NCI-H1417 (small cell lung carcinoma, suspension, top dose 5.12 µM)
AUC: 0.842 | IC50: 4640 nM

NCI-H1435 (lung adenocarcinoma, semi-adherent, top dose 5.12 µM)
AUC: 0.922 | IC50: > 5120 nM

NCI-H1436 (small cell lung carcinoma, suspension, top dose 5.12 µM)
AUC: 0.913 | IC50: > 5120 nM

NCI-H1437 (lung adenocarcinoma, adherent, top dose 5.12 µM)
AUC: 0.666 | IC50: 948 nM

NCI-H1563 (lung adenocarcinoma, adherent, top dose 5.12 µM)
AUC: 0.684 | IC50: 1160 nM

NCI-H1568 (lung adenocarcinoma, adherent, top dose 5.12 µM)
AUC: 0.857 | IC50: > 5120 nM

NCI-H1573 (lung adenocarcinoma, adherent, top dose 5.12 µM)
AUC: 0.868 | IC50: 4420 nM

NCI-H1581 (large cell lung carcinoma, semi-adherent, top dose 5.12 µM)
AUC: 0.929 | IC50: > 5120 nM

NCI-H1623 (lung adenocarcinoma, adherent, top dose 5.12 µM)
AUC: 0.969 | IC50: > 5120 nM

NCI-H1648 (lung adenocarcinoma, adherent, top dose 5.12 µM)
AUC: 0.535 | IC50: 400 nM

NCI-H1651 (lung adenocarcinoma, adherent, top dose 5.12 µM)
AUC: 0.984 | IC50: > 5120 nM

NCI-H1666 (lung adenocarcinoma, semi-adherent, top dose 5.12 µM)
AUC: 0.823 | IC50: 3410 nM

NCI-H1688 (small cell lung carcinoma, adherent, top dose 5.12 µM)
AUC: 0.919 | IC50: > 5120 nM

NCI-H1693 (lung adenocarcinoma, adherent, top dose 5.12 µM)
AUC: 0.829 | IC50: > 5120 nM

NCI-H1694 (small cell lung carcinoma, suspension, top dose 5.12 µM)
AUC: 0.822 | IC50: 2960 nM

NCI-H1703 (lung adenocarcinoma, adherent, top dose 5.12 µM)
AUC: 0.68 | IC50: 1140 nM

NCI-H1734 (lung adenocarcinoma, adherent, top dose 5.12 µM)
AUC: 0.826 | IC50: 3530 nM

NCI-H1755 (lung adenocarcinoma, adherent, top dose 5.12 µM)
AUC: 0.356 | IC50: 119 nM

NCI-H1770 (non-small cell lung carcinoma, suspension, top dose 5.12 µM)
AUC: 0.943 | IC50: > 5120 nM

NCI-H1781 (lung adenocarcinoma, adherent, top dose 5.12 µM)
AUC: 0.856 | IC50: 4110 nM

NCI-H1792 (lung adenocarcinoma, adherent, top dose 5.12 µM)
AUC: 0.656 | IC50: 826 nM

NCI-H1793 (lung adenocarcinoma, adherent, top dose 5.12 µM)
AUC: 0.788 | IC50: 3330 nM

NCI-H1836 (small cell lung carcinoma, suspension, top dose 5.12 µM)
AUC: 0.894 | IC50: > 5120 nM

NCI-H1838 (lung adenocarcinoma, adherent, top dose 5.12 µM)
AUC: 0.925 | IC50: > 5120 nM

NCI-H1869 (lung squamous cell carcinoma, adherent, top dose 5.12 µM)
AUC: 0.748 | IC50: 1830 nM

NCI-H1876 (small cell lung carcinoma, adherent, top dose 5.12 µM)
AUC: 0.739 | IC50: 1560 nM

NCI-H1915 (large cell lung carcinoma, adherent, top dose 5.12 µM)
AUC: 0.945 | IC50: > 5120 nM

NCI-H1944 (lung adenocarcinoma, adherent, top dose 5.12 µM)
AUC: 0.657 | IC50: 899 nM

NCI-H1975 (lung adenocarcinoma, adherent, top dose 5.12 µM)
AUC: 0.71 | IC50: 1380 nM

NCI-H1993 (lung adenocarcinoma, adherent, top dose 5.12 µM)
AUC: 0.73 | IC50: 1800 nM

NCI-H2009 (lung adenocarcinoma, adherent, top dose 5.12 µM)
AUC: 0.969 | IC50: > 5120 nM

NCI-H2023 (lung adenocarcinoma, adherent, top dose 5.12 µM)
AUC: 0.869 | IC50: > 5120 nM

NCI-H2029 (small cell lung carcinoma, adherent, top dose 5.12 µM)
AUC: 0.913 | IC50: > 5120 nM

NCI-H2030 (lung adenocarcinoma, adherent, top dose 5.12 µM)
AUC: 0.803 | IC50: 2970 nM

NCI-H2052 (mesothelioma, adherent, top dose 5.12 µM)
AUC: 0.952 | IC50: > 5120 nM

NCI-H2081 (small cell lung carcinoma, suspension, top dose 5.12 µM)
AUC: 0.771 | IC50: 2070 nM

NCI-H2085 (lung adenocarcinoma, adherent, top dose 5.12 µM)
AUC: 0.474 | IC50: 269 nM

NCI-H2087 (lung adenocarcinoma, semi-adherent, top dose 5.12 µM)
AUC: 0.751 | IC50: 1800 nM

NCI-H2110 (non-small cell lung carcinoma, adherent, top dose 5.12 µM)
AUC: 0.887 | IC50: > 5120 nM

NCI-H2122 (lung adenocarcinoma, adherent, top dose 5.12 µM)
AUC: 0.923 | IC50: > 5120 nM

NCI-H2135 (non-small cell lung carcinoma, adherent, top dose 5.12 µM)
AUC: 0.76 | IC50: 1750 nM

NCI-H2141 (small cell lung carcinoma, suspension, top dose 5.12 µM)
AUC: 0.798 | IC50: 2360 nM

NCI-H2170 (lung squamous cell carcinoma, adherent, top dose 5.12 µM)
AUC: 0.935 | IC50: > 5120 nM

NCI-H2171 (small cell lung carcinoma, suspension, top dose 5.12 µM)
AUC: 0.866 | IC50: 3580 nM

NCI-H2172 (non-small cell lung carcinoma, adherent, top dose 5.12 µM)
AUC: 0.869 | IC50: > 5120 nM

NCI-H2196 (small cell lung carcinoma, adherent, top dose 5.12 µM)
AUC: 0.798 | IC50: 2580 nM
